# Measurements as given in article PMC6727748 (Molecular Biology of the Cell, 2019).
# Columns and labels:
# [1] = molecular target: YFP–CaV1.2 (rabbit CaV1.2 with YFP at the N terminus) (rabbit, UniProt P15381 1-2171); assay: FRET or BRET
# [2] = molecular target: CaV1.2–YFP (rabbit CaV1.2 with YFP at the C terminus) (rabbit, UniProt P15381 1-2171); assay: FRET or BRET
binder,measurement,setting,value
"AKAP79ΔLZ–CFP (human AKAP79 lacking its C-terminal 17 residues, fused to CFP) (domain or fragment) not shown",apparent FRET efficiency (Eeff),[1],12.8%
same,apparent FRET efficiency (Eeff),[2],4.15%
